According to PubChem BioAssay AID485364 (National Center for Advancing Translational Sciences (NCATS), 2010):
Among all 360,000 compounds or so, about 11,000 (3.1%) were called active. The shares of active, inactive and inconclusive entries below differ from those in the screen. The call rests on the fitted dose curve; in most records, active means well fitted inhibition curve with a large enough effect; inconclusive means small, poorly fitted or top-dose-only effect; inactive means no such curve, though single readings can be large or run the other way. Potencies of inconclusive entries are left out as doubtful fits.

Molecular target: Schistosoma mansoni thioredoxin glutathione reductase (TGR) (UniProt Q962Y6)
Test: qHTS Assay for the Inhibitors of Schistosoma Mansoni Peroxiredoxins; further: nearly all actives have a fitted effect of over 60% in size
Conditions: purified TGR, DTNB reduction, TNB absorbance 405 nm; activity change, negative = inhibition: at 114 µM (top of the series) unless noted
Summary of the method: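 Kinetic colorimetric format: TGR-catalysed, NADPH-driven DTNB reduction monitored via TNB absorbance. Enzyme dispensed at 20 nM; compound exposure 15 min at room temperature before reaction start.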
On the % scale 0 is the no-effect control and ±100 the full control effect; potency means the concentration at half of the fitted maximal effect; tags describe the fitted curve by direction and shape.

| SMILES | Potency | activity change, negative = inhibition |
| --- | --- | --- |
| O=C(NNC(=O)C1C2CCCCC21)c1coc(=O)c(Br)c1 (stereo not given) | inconclusive [inhibitor, partial curve] | – |
| Cc1ccccc1NS(=O)(=O)c1cc(C(=O)Nc2cccc([N+](=O)[O-])c2)ccc1C | – | inactive: -9.79% |
| CCOc1cc(/C=C2/C(=O)NC(=O)N(c3ccc(CC)cc3)C2=O)ccc1OC(=O)c1cccs1 | active: 35.5 µM | – |
| O=C(Nc1ccc(Cl)cc1)[C@@H]1[C@@H]2C(=O)N(c3ccc4ccccc4c3)C(=O)[C@@H]2[C@H]2C=CC=NN21 | inconclusive [inhibitor, full curve] | – |
| CCOc1ccc(N2CSC3=C(C#N)C(c4ccco4)CC(=O)N3C2)cc1 (stereo not given) | active: 25.1 µM | – |
| COc1cccc(-c2nnc3sc(-c4ccco4)nn23)c1 | – | inactive: -15.2% |
| Cc1ccc(C(=O)COC(=O)CN2C(=O)C3C4CCC(C4)C3C2=O)cc1C (stereo not given) | inconclusive [inhibitor, partial curve] | – |
| COc1cccc(C2C(C#N)=C(N)OC3=C2C(=O)CC(c2ccco2)C3)c1OCc1ccc(F)cc1 (stereo not given) | inconclusive [inhibitor, partial curve] | – |
| CNC(=O)c1c(NC(=O)CS(=O)(=O)c2ccccc2)sc(C)c1C | inconclusive [inhibitor, partial curve] | – |
| Cc1ccc2sc(N(CCCN(C)C)C(=O)CCS(=O)(=O)c3ccccc3)nc2c1C | active: 7.08 µM | – |
| COC(=O)C1=C(c2ccc(C(C)=O)cc2)C[C@@H]2CC[C@H]1N2C(=O)NC1CC1 | inconclusive [inhibitor, partial curve] | – |
| CC(C)(C)c1cnnn1-c1ccc(C(=O)CCl)cc1 | active: 8.91 µM | – |
| O=S1(=O)c2ccccc2N=NN1Cc1ccc(Cl)cc1 | active: 2.51 µM | – |
| Cc1ccc(C(=O)NC2CCN(C(=O)NC3CCCCC3)CC2)cc1 | inconclusive [inhibitor, full curve, poor fit] | – |
| CCN1C(=O)[C@H]2[C@@H](c3ccc(-c4ccc(Cl)c(Cl)c4)cc3)N[C@@](CC(C)C)(C(=O)OC)[C@H]2C1=O | inconclusive [inhibitor, partial curve] | – |
| O=C1CSC(c2ccc(Cl)cc2)N1C1CCCCC1 (stereo not given) | inconclusive [inhibitor, single point] | – |
| COc1ccc(C)cc1NC(=O)CSc1nc2ccccc2nc1N1CCCC1 | – | inactive: 7.58% |
| N=c1oc2ccc(Cl)cc2cc1C(=O)Nc1ccc(F)cc1 | inconclusive [inhibitor, partial curve] | – |
| Cc1ccc2[nH]c3nc(NN)nnc3c2c1 | inconclusive [inhibitor, full curve, poor fit] | – |
| COc1ccc(Cl)cc1NC(=O)CN(C)C1CCS(=O)(=O)C1 (stereo not given) | active: 50.1 µM | – |
| COc1ccc(C=C2C=C(C(C)(C)C)C(=O)C(C(C)(C)C)=C2)cc1OC | active: 4.47 µM | – |
| CCc1ccc(N2CCN(C(=O)c3ccc(OC)c(OC)c3)CC2)cc1 | – | inactive: 0.195% |
| COc1ccc(C(O)CNc2ccc(C)cc2)cc1 (stereo not given) | inconclusive [inhibitor, partial curve] | – |
| C=CC(=O)N=c1sc2ccccc2n1-c1ccccc1 | active: 39.8 µM | – |
| CC(=O)Nc1ccc(S(=O)(=O)Nc2ccc(S(=O)(=O)N3CCCCCC3)cc2)cc1 | – | inactive: -12.5% |

| SMILES | Potency | activity change, negative = inhibition |
| --- | --- | --- |
| Cc1ccc(S(=O)(=O)CCC(=O)Nc2cccc([N+](=O)[O-])c2)cc1 | inconclusive [inhibitor, partial curve] | – |
| N#Cc1c(NC(=O)CSc2nnnn2C2CCCC2)sc2c1CCCC2 | inconclusive [inhibitor, partial curve] | – |
| CCCc1c(C)nc(N2CCN(c3cccc(OC)c3)CC2)[nH]c1=O | – | inactive: -21.5% |
| NC(=O)c1nsc(C(=O)N(CC(=O)NCc2ccco2)c2ccccc2F)c1N | inconclusive [inhibitor, partial curve] | – |
| Cc1cccc(NC(c2cccc(Cl)c2)c2ccc3cccnc3c2O)n1 (stereo not given) | active: 4.47 µM | – |
| COc1ccc([C@]23Cc4cc(OC)c(OC)cc4C(O2)c2c(cc(C)oc2=O)O3)cc1 | active: 7.08 µM | – |
| Nc1c2c(nc3ccc(Br)cc13)N(c1ccccc1)CC2 | inconclusive [inhibitor, partial curve] | – |
| CC(SC1=NCCN1S(=O)(=O)c1ccc(F)cc1)c1ccccc1 (stereo not given) | inconclusive [inhibitor, full curve, poor fit] | – |
| CC(=O)c1cccc(NC(=S)NC(=O)c2ccc(Br)cc2)c1 | – | inactive: -14% |
| CCOC(=O)/C=C/C(=O)Nc1nccs1 | active: 39.8 µM | – |
| OCCN1CCN(CCCN2c3ccccc3Sc3ccc(Cl)cc32)CC1 | – | inactive: -8.73% |
| O=C(N/N=C/c1ccc(N2CCOCC2)o1)c1cccc([N+](=O)[O-])c1 | active: 11.2 µM | – |
| COc1ccc(-c2nc3oc4cc(OC)ccc4c(=O)c3c(=O)n2Cc2ccco2)cc1 | active: 20 µM | – |
| O=C(COC(=O)c1ccncc1)Nc1cccc(Cl)c1 | – | inactive: 3.67% |
| COc1ccc(C(=O)c2ccsc2N)cc1 | active: 12.6 µM | – |
| Cc1[nH]n(C(N)=S)c(=O)c1N=Nc1ccc2ccccc2c1 | inconclusive [inhibitor, partial curve] | – |
| CC1CCCN(S(=O)(=O)c2cccc([N+](=O)[O-])c2)C1 (stereo not given) | inconclusive [inhibitor, full curve, poor fit] | – |
| O=C(OCC(=O)N1CCCCC1)c1ccc2c(c1)C(=O)N(Cc1ccco1)C2=O | inconclusive [inhibitor, full curve, poor fit] | – |
| O=C(CCCc1cccs1)Nc1nccs1 | – | inactive: -0.782% |
| COc1ccc(C(=O)NC2=NCCS2)cc1S(=O)(=O)N1CCCCC1C (stereo not given) | – | inactive: 8.98% |
| O=C(NCc1ccco1)c1cc2ccc(O)cc2oc1=O | inconclusive [inhibitor, partial curve] | – |
| Cc1ccc(CCNC(=O)CN(C)S(=O)(=O)c2ccc3c(c2)n(C)c(=O)c(=O)n3C)cc1 | – | inactive: -2.97% |
| OC(CNc1ncnc2sccc12)c1ccccc1 (stereo not given) | – | inactive: 3.51% |
| COCCN(CCOC)c1ncnc2c1cnn2-c1ccc(Cl)cc1 | – | inactive: 6.67% |
| COC(=O)c1c(C)oc(C)c1S(=O)(=O)NC(C)(C)C | active: 25.1 µM | – |

| SMILES | Potency | activity change, negative = inhibition |
| --- | --- | --- |
| C(#Cc1ccccc1)C[N+]1(CC#Cc2cccc3ccccc23)CCCC1 | inconclusive [inhibitor, single point] | – |
| COc1ccc(S(=O)(=O)N2CCCOC2CNC(=O)C(=O)NCCc2ccco2)cc1C (stereo not given) | inconclusive [inhibitor, full curve, poor fit] | – |
| Cn1cc(S(=O)(=O)CC(=O)Nc2ccc3c(c2)OCCO3)c2ccccc21 | inconclusive [inhibitor, partial curve] | – |
| CCc1nnc(NS(=O)(=O)c2ccc(NC(=S)NC(=O)/C=C/c3ccc(F)cc3)cc2)s1 | inconclusive [inhibitor, partial curve] | – |
| CCOc1ccc(C(C)NC(=O)c2ccccc2OCc2c(C)noc2C)cc1OCC (stereo not given) | – | inactive: -3.98% |
| CCCN(Cc1ccccc1)C(=S)Nc1ccc(SC(F)F)cc1 | inconclusive [inhibitor, single point] | – |
| COc1cccc(CNC(=O)C(=O)NCC(c2cccs2)S(=O)(=O)c2cccs2)c1 (stereo not given) | active: 25.1 µM | – |
| CCOC(=O)c1c(NC(=O)CSc2nnnn2-c2ccc(OC)cc2)sc(C)c1C | inconclusive [inhibitor, single point] | – |
| Cc1cc(Nc2ccc(F)cc2)n2nc(C)nc2n1 | – | inactive: 77.6% |
| CC1=C(C(=O)Nc2ccc(Cl)cc2)C(c2cccs2)n2nc(SCc3cccc(Cl)c3)nc2N1 (stereo not given) | – | inactive: -0.319% |
| CCn1c(Oc2ccc(F)cc2F)nc2c1c(=O)n(C)c(=O)n2C | – | inactive: -7.7% |
| O=c1c(-c2ccccc2Cl)coc2c(CN3CCCCC3)c(O)ccc12 | inconclusive [inhibitor, single point] | – |
| Cc1cc(C)c2c(=O)n(CC(=O)Nc3ccc(Cl)cc3)sc2n1 | inconclusive [inhibitor, partial curve] | – |
| CC(C)c1ccc(OCC(=O)N2CCN(c3ccccn3)CC2)c(Br)c1 | inconclusive [inhibitor, partial curve] | – |
| COc1ccc(C)cc1NC(=O)C1CC(=O)N(Cc2ccco2)C1 (stereo not given) | inconclusive [inhibitor, partial curve] | – |
| CCN(CC)c1ccc(NC(=O)CCS(=O)(=O)c2cccc3nsnc23)c(C)c1 | inconclusive [inhibitor, partial curve] | – |
| Cc1ccc(C2(C)NC(=O)N(CC(=O)NCc3ccccc3Cl)C2=O)cc1 (stereo not given) | – | inactive: 14.5% |
| Cn1c(-c2ccc(F)cc2)cnc1SCC(=O)NCc1ccco1 | active: 31.6 µM | – |
| CCOC(=O)c1ccc(NC(=O)c2nc[nH]c2C(=O)N[C@@H](CC(C)C)C(=O)OC(C)(C)C)cc1 | – | inactive: 12.2% |
| Cc1ccc(C(=O)N/N=C\c2ccc([N+](=O)[O-])o2)cn1 | inconclusive [inhibitor, partial curve] | – |
| CCCN1CCN(CCCNC(=O)c2cc3c(=O)[nH]c4ccccc4c3s2)CC1 | inconclusive [inhibitor, partial curve] | – |
| CCOc1ccc(C2C=C(c3ccc(F)cc3)Nc3ncnn32)cc1 (stereo not given) | active: 28.2 µM | – |
| COc1ccc(Cl)cc1/C=C1/C(=O)ON=C1C | inconclusive [inhibitor, partial curve] | – |
| COc1ccc(S(=O)(=O)N2CCOCC2)cc1NC(=O)CN1CCN(C)CC1 | – | inactive: -6.03% |
| Cc1ccccc1-c1nc(CS(=O)(=O)CC(=O)NCc2ccco2)c(C)o1 | inconclusive [inhibitor, partial curve] | – |
